# The list shows a part of the results. At the low end of the ranking the order means little.
# Biological target: GST-SBP-SLBP (stem-loop binding protein) (UniProt Q14493)
# Assay: targeted RNA Bind-n-Seq;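 further: DESeq read counts versus GST-SBP nonspecific binding control pulldown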
# Conditions: RBNS binding buffer: 25 mM Tris pH 7.5, 150 mM KCl, 3 mM MgCl2, 0.1% Tween, 0.5 mg/mL BSA, 1 mM DTT; 27 nM protein, 750 pM RNA pool; temperature not stated; high values mean tight binding
row,Sequence,binding signal (log2 fold change)
1,GGUCACGUCUCAAUCAACUCAUGUCCAGGAGUUUCCUCCUGUAUUUUCAACAGCUCGCAGUCAAG,-0.254
2,GGUCACGUCUCAAUCAACUCUAACGAGGGGGGGAAAACCCCUUUACCCUCAACAUCAACAGCUCGCAGUCAAG,0.268
3,GGUCACGUCUCAAUCAACUCAACUUCCAGGGAAACCCCUGGUAUUUUCAACAGCUCGCAGUCAAG,0.183
4,GGUCACGUCUCAAUCAACUCCACAGAGGGGGGGAAAACCCCUUUACCCUCACUCUCAACAGCUCGCAGUCAAG,-0.0607
5,GGUCACGUCUCAAUCAACUCCUAAGAGGGGGGGAAAACCCCUUUGCCCUCACUUUCAACAGCUCGCAGUCAAG,0.38
6,GGUCACGUCUCAAUCAACUCAUCUUCAGGAGUUUUCUCCUGCAUUUUCAACAGCUCGCAGUCAAG,0.00132
7,GGUCACGUCUCAAUCAACUCCUUCGAGGGGGGGAAAACCCCUUUACCCUCAUCCUCAACAGCUCGCAGUCAAG,0.0926
8,GGUCACGUCUCAAUCAACUCAUCGCCCAGGGAAAGCCCUGGUUUUUUCAACAGCUCGCAGUCAAG,-0.372
9,GGUCACGUCUCAAUCAACUCAACUCCAGGAGUUUGCUCCUGCUAUUUCAACAGCUCGCAGUCAAG,0.0139
10,GGUCACGUCUCAAUCAACUCAACUCCAGGAGUUUUCUCCUGCAAACUCAACAGCUCGCAGUCAAG,-0.0582
11,GGUCACGUCUCAAUCAACUCAUUCUCCAGGGAAAUCCCUGGCUUAGUCAACAGCUCGCAGUCAAG,-0.0531
12,GGUCACGUCUCAAUCAACUCAACUCCCAGGGAAAACCCUGGUAAACUCAACAGCUCGCAGUCAAG,-0.154
13,GGUCACGUCUCAAUCAACUCUUUUUCAGGAGUUUGCUCCUGCAUAUUCAACAGCUCGCAGUCAAG,-0.114
14,GGUCACGUCUCAAUCAACUCUUUCUCCAGGGAAACCCCUGGUUAUGUCAACAGCUCGCAGUCAAG,0.226
15,GGUCACGUCUCAAUCAACUCAUUCUCAGGAGUUUUCUCCUGCUAACUCAACAGCUCGCAGUCAAG,0.0174
16,GGUCACGUCUCAAUCAACUCAUCUUCCAGGGAAACCCCUGGUAUACUCAACAGCUCGCAGUCAAG,0.22
17,GGUCACGUCUCAAUCAACUCAAUAGAGGGGGGGAAAACCCCUUUGCCCUCCAAAUCAACAGCUCGCAGUCAAG,0.191
18,GGUCACGUCUCAAUCAACUCCCACGAGGGGGGGAAAACCCCUUUACCCUCAAUUUCAACAGCUCGCAGUCAAG,0.12
19,GGUCACGUCUCAAUCAACUCCUCCGAGGGGGGGAAAACCCCUUUACCCUCAUAUUCAACAGCUCGCAGUCAAG,-0.324
20,GGUCACGUCUCAAUCAACUCUUUCUCAGGAGUUUCCUCCUGCUAACUCAACAGCUCGCAGUCAAG,0.147

# Reference: publication PMC5892938
